According to PubChem BioAssay AID488969 (Vanderbilt High Throughput Screening Facility, 2010):
The full ranking holds about 110,000 compounds; the median of “z-score” is about -0.1, and the highest 2% start at about 2. The list shows a part of the results.

biological target: Metabotropic glutamate receptor 8 (Rattus norvegicus) (UniProt P70579); assay: rat mGluR8 modulators via GIRK flux, primary screen, cell-based, thallium flux, HTS (AID 488969); details: HEK293 rat mGluR8, GIRK (G protein-gated inwardly rectifying potassium channel) thallium flux, FluoZin2; at 10 µM; stronger effect = higher value; submaximal glutamate (EC20) added with thallium
UniProt P70579, sequence (P70579 whole entry, looked up): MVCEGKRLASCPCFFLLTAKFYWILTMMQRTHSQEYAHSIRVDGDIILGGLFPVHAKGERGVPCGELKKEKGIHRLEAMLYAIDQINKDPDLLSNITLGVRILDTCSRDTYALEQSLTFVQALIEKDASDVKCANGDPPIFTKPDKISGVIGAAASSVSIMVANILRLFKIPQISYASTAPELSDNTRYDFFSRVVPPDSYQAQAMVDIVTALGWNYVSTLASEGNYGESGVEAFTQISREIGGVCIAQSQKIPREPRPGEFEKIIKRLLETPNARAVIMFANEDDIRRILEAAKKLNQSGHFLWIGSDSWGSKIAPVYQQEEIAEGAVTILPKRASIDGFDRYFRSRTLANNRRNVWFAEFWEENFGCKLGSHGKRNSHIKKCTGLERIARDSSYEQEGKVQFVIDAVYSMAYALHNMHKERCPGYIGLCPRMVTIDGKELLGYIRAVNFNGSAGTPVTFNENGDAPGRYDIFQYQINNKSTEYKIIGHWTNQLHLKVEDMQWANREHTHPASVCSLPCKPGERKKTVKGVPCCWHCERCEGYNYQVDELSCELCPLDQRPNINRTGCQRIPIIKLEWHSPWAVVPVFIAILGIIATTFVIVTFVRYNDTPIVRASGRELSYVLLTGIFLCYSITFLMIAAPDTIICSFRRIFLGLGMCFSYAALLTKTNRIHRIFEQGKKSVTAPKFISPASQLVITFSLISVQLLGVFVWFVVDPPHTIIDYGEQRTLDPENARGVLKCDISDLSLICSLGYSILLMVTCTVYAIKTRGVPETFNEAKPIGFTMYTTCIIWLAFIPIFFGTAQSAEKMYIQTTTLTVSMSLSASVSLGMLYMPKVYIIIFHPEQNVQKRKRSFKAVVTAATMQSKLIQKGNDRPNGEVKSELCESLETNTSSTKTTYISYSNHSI

Structure (SMILES) | z-score
Cc1cc(Nc2ccccc2)n(C(=O)c2ccc(N)cc2)n1 | 0.288
COc1ccccc1-c1cc(C(F)(F)F)nc(N2CCOCC2)n1 | 0.856
Cn1c(=O)c2c(ncn2CC(=O)Nc2nnc(Cc3ccccc3)s2)n(C)c1=O | 0.201
O=C(CNC1=NCCC1)c1ccc2c(c1)OCCO2 | -0.257
C(#Cc1ccccc1)C[N+]1(CC#Cc2cccc3ccccc23)CCCC1 | -0.149
Cc1cc(N2CCCC2)nc(SCC(=O)c2ccccc2)n1 | 0.0585
Cc1ccc(NC(=O)CCN2CCN(C/C=C/c3ccccc3)CC2)cc1 | 0.316
C/C(=C\C(=O)c1ccc(Cl)cc1)Nc1ccc(Br)cc1 | -0.278
CC(C)(C)c1ccc(OCc2ccc(C(=O)N/N=C3\CC4CC=CC34)cc2)cc1 (stereo not given) | -0.0236
O=C(COc1ccc2c(c1)CCC2)N1CCN(c2cccc(C(F)(F)F)c2)CC1 | -0.0515
CCN(CC)CC(=O)NC12CC3CC(CC(C3)C1)C2 | 2.42
O=C(Nc1nc(-c2ccc(Cl)cc2Cl)cs1)C1CCCO1 (stereo not given) | -0.0446
CC(=O)Nc1cccc(Oc2cc(C#N)c(C#N)cc2N2CCCCCC2)c1 | 2.07
CCc1nnc(NC(=O)Cn2c(=O)oc3ccccc32)s1 | 0.749
Cc1cc(/C=C(\C#N)C(=O)NCc2cccs2)c(C)n1-c1ccccc1F | -0.0698
Cc1ccc(C)c(N2CCN(c3nnnn3-c3ccccc3)CC2)c1 | -0.403
CC1CC(C)(C)N(C(=O)NC2CCCCC2)c2ccccc21 (stereo not given) | -1.44
Cc1cc(NC(=O)CN2C(=O)NC(Cc3ccccc3)C2=O)no1 (stereo not given) | -0.793
COc1ccc(C(CC(=O)O)NC(=O)COc2ccccc2)cc1OC (stereo not given) | 0.951
C1=C(CCNc2nnnn2-c2ccccc2)CCCC1 | -0.26
CCOC(=O)c1ccc(NC(=S)Nc2cccc(C)n2)cc1 | -0.176
CCC(C)C(=O)Nc1nc(C)c(-c2csc(Nc3ccccc3OC)n2)s1 (stereo not given) | -0.407
Nc1ccccc1C(=O)N/N=C1\C2CN3CCN(C2)CC1(c1ccccc1)C3 | -0.0799
FCCCOc1ccc(/C=N/OCc2c(Cl)cccc2Cl)cc1 | -0.198
N#CC1=C(N)Nc2ncnn2C1c1ccc(F)cc1 (stereo not given) | 0.149
CCOC(=O)c1c(NC(=O)CN2CCN(C(=O)c3ccco3)CC2)sc2c1CCCC2 | -0.407
CC(C)(C)OC(=O)Cn1c(=O)cnc2ccccc21 | 0.105
CC1CC(C)CN(C(=O)c2ccc3c(c2NCCO)C(=O)c2ccccc2C3=O)C1 (stereo not given) | -0.365

Structure (SMILES) | z-score
CCOC(=O)c1c(NC(=O)CSc2nnnn2-c2ccc(OC)cc2)sc(C)c1C | -0.106
Cc1nn(Cc2ccccc2)c2sc(C(=O)NCc3cccnc3)cc12 | 0.369
CC1(C)Cc2nc3sc4c(SCC(=O)NC(c5ccccc5)c5ccccc5)ncnc4c3cc2CO1 | 0.0674
Cc1[nH]n(-c2ccc(Cl)cc2)c(=O)c1C=Nc1ccc(S(=O)(=O)N2CCOCC2)cc1 | -0.806
CCCCOc1ccc(C(=O)NCC2(c3ccccc3)CCOCC2)cc1 | -0.0411
Cc1cc(Nc2ccc(F)cc2)n2nc(C)nc2n1 | 0.137
CC(C)(CCl)C(=O)Nc1ccc(Sc2ccc(F)cc2)cc1 | 0.562
CCn1c2ccccc2c2nnc(SCC(=O)Nc3c(C)n(C)n(-c4ccccc4)c3=O)nc21 | -0.616
CCOC(=O)c1cc2sccc2n1Cc1ccccc1 | 0.0394
O=C1OC(c2ccccc2)=C/C1=C\N1CCOCC1 | 0.172
CCOC(=O)c1cnn2c(N)c(C#N)nnc12 | 0.128
Cc1nc2nc(COc3ccccc3)[nH]n2c(=O)c1Cl | -0.0144
COc1ccc(OCCOC(=O)c2cccc(-n3cnnn3)c2)cc1 | -0.341
Cn1c(=O)c2ncn(CC(=O)Nc3cc(C(F)(F)F)ccc3N3CCOCC3)c2n(C)c1=O | -0.158
CS(=O)(=O)N(Cc1ccccc1)c1ccc(C(=O)Nc2ccc3c(c2)OCO3)cc1 | -0.0352
COc1ccc(-c2c(C)nn3c(N4CCN(Cc5ccccc5)CC4)cc(C)nc23)cc1OC | -0.3
Cn1c(-c2ccc(F)cc2)cnc1SCC(=O)NCc1ccco1 | 1.12
CCOC(=O)C1=NN(c2ccc(C)cc2)C2(S1)SC(C(C)=O)=C(C)N2c1ccccc1 (stereo not given) | 0.0798
O=C(CNC(=O)c1cccc(F)c1)OCC(=O)N1CCCCC1 | -0.0833
CCOC(=O)N1CCC(Nc2c(NCCN3CCN(c4ccccc4F)CC3)c(=O)c2=O)CC1 | -0.365
COc1ccc(/C(C)=N/OCC(=O)Nc2nc3ccccc3s2)cc1 | -0.36
Cn1ncc([N+](=O)[O-])c1C(=O)Nc1ccn(Cc2ccccc2F)n1 | -0.0448
CCn1c(COc2ccc(=O)n(-c3ccccc3)n2)nnc1SCc1ccccc1 | -0.582
COc1ccc(NC(=O)NCc2cccn2C)c(OC)c1 | -0.0951
O=C(Nc1ccc(F)c(Cl)c1)C1CCN(S(=O)(=O)c2cccnc2)CC1 | -0.424
COc1ccc(CNC(=O)C2C3C=CC4(CN(Cc5cccnc5)C(=O)C24)O3)cc1 (stereo not given) | -0.0389
Cc1ccc(-c2csc(NC(=O)CSC3=NCCS3)n2)cc1 | 0.0209
